Assay [1] deals with Pseudomonas PAO1 biofilms induced by neutrophils. The assay is described as follows: Crystal violet assay: disruption of 24 hour neutrophil-induced biofilm, removed from neutrophil products and treated in saline for 3 hours. Particulars: 3 hours at 37° C.; for disruption of the biofilm (optical density from crystal violet staining): 24 h biofilm washed, in saline; for disruption of the biofilm, longer (260) versus shorter (74) chain: equimolar concentrations (FIG. 14B: 5 M printed), saline.

Assay [2] relates to P. aeruginosa PAO1 in the presence of neutrophils. The assay is described as follows: Crystal violet assay: prevention of neutrophil-induced biofilm formation, agent added at time=0, 24 hours. The note with it: poly(amino acid) 10 μM added at time=0, 24 hours at 37° C., 1:1000 ratio.
The test system of assay [3] is Pseudomonas PAO1 biofilms induced by neutrophils. The assay is described as follows: Crystal violet assay: disruption of 24 hour neutrophil-induced biofilm without removal of neutrophils (overnight culture material present), 3 hours. Particulars: 3 hours at 37° C.; for disruption of the biofilm in the presence of overnight culture material, long versus short chain: 74 mer and 260 mer compared.

The subject of assay [4] is P. aeruginosa. As to the kind of experiment: Antibiotic potential of the components of the peptide assays (bacteria recovered from pooled wells). The assay is classed as cell-based, Pseudomonas aeruginosa. The note with it: tested individually and in combination, data not shown. Here is the method:
To quantify the density of biofilms formed under various conditions biofilms were established on a NUNC Tsp plate lid as detailed above. Pegs were rinsed in saline for 2 minutes, then placed in a 96 well round bottom Nunc plate with 150 μL sterile saline, and sonicated twice for 10 minutes in a Fisher FS 110 sonicator (Pittsburgh, Pa.). Test wells were pooled, and serially diluted 10 fold, and 20 μL was plated in triplicate at the 1×10^−3 to 1×10^−6 dilutions onto LB agar for quantization.
The robust activity of poly(R) in the prevention of biofilm formation led to a question of an alternate mechanism of disruption in this system. To address this, the antibiotic potential of all the components of the peptide assays were tested individually and, when appropriate, in combination.
The unexpectedly robust activity of (Arg)74 in the prevention of biofilm formation led to a question of an alternate mechanism of disruption in this system. To address this, the antibiotic potential of all the components used in the peptide assays were tested individually and, when appropriate, in combination. […] While highly cationic proteins can serve as antimicrobials, we are not aware of previous reports of simple poly(amino acids) with this property.

Assay [5] has as its system P. aeruginosa Late CF strain biofilms. The assay is described as follows: Crystal violet assay: 10 minute exposure of neutrophil-induced Late CF strain biofilms to (Asp)260 and/or DNase. The assay is classed as cell-based, Pseudomonas aeruginosa. Particulars: (Asp)260 5 μM, DNase 33 μg/mL, 10 minutes at 37° C. in saline.
Assay [6] relates to neutrophil induced B. Thailandensis biofilm. The assay is classed as cell-based.
For assay [7], the system named is PA01 biofilms formed in the presence of neutrophils. As to the kind of experiment: Crystal violet assay: 10 minute exposure of 24 or 48 hour neutrophil-induced PA01 biofilms to poly(amino acid) and/or DNase. The note with it: DNase 33 μg/mL.
Assay [8] relates to P. aeruginosa Early CF strain biofilms. As to the kind of experiment: Crystal violet assay: 10 minute exposure of neutrophil-induced Early CF strain biofilms to (Asp)260 and/or DNase. The assay is classed as cell-based, Pseudomonas aeruginosa. Particulars: (Asp)260 5 μM, DNase 33 μg/mL, 10 minutes at 37° C. in saline.
[9] abbreviates: poly(amino acid) 5 μM, 10 minutes at 37° C. in saline.

“Also recorded” adds a separate entry of the source.

`NC[C@H]1O[C@H](O[C@H]2[C@H](O)[C@@H](O[C@H]3O[C@H](CO)[C@@H](O)[C@H](N)[C@H]3O)[C@H](N)C[C@@H]2N)[C@H](N)C[C@@H]1O` [tobramycin, reference compound]: the “disruption of the biofilm by antibiotics” value in assay [1] (8 μg/mL to 1024 μg/mL, 24 h biofilm, listed as Tobramycin) is on record as “No disruption of the biofilm was observed”.

Consider polyarginine [(Arg)74], for which the “prevention of biofilm formation” value in assay [2] (listed as Poly(R)) is given as “more effective at preventing the formation of biofilms”; in assay [2] (listed as poly(Arg)), “significantly better then poly(Asp)”. Moreover, the “disruption of the biofilm in the presence of overnight culture material, long versus short chain” value in assay [3] is listed as “had a significant effect”. Besides, the “disruption of the biofilm in the presence of neutrophils / overnight culture material” value is “small but significant capacity to disrupt the biofilm” in assay [3] (poly(amino acid) 5 μM) and “exhibited a dose dependent response” in assay [3] (poly(amino acid) 5 μM, listed as poly(R) ~75 mer). Also, the “disruption of the biofilm (optical density from crystal violet staining)” value in assay [1] (poly(amino acid) 10 μM) is “this effect was not significantly greater with 10 μM”. In addition, the “intrinsic antibiotic effect on P. aeruginosa” value is reported as “bactericidal” in assay [4] and “bactericidal or bacteriostatic” in assay [4] (listed as poly(R)).

As for polyarginine [(Arg)260], the “disruption of the biofilm in the presence of overnight culture material, long versus short chain” value in assay [3] was “had a significant effect”. The results for the “disruption of the biofilm, longer (260) versus shorter (74) chain” value in assay [1] and in assay [1] (listed as poly(R) ~260 mer) were “had a greater effect than (Asp)74; also recorded: more effective then (Arg)74” and “exhibited greater disruption of the biofilm than their respective shorter chain form”, respectively. The “disruption of the biofilm (optical density from crystal violet staining)” value is listed as “exhibited a significant disruptive effect” in assay [1] (poly(amino acid) 5 μM) and “exhibited a disruptive effect” in assay [1] (poly(amino acid) 5 μM, listed as poly(R) ~260 mer).

As for polyaspartic acid [(Asp)74], the “prevention of biofilm formation” value in assay [2] (listed as poly(D) ~75 mer) is reported as “prevented biofilm formation”. Also, the “disruption of the biofilm in the presence of neutrophils / overnight culture material” value in assay [3] (poly(amino acid) 5 μM) and in assay [3] (poly(amino acid) 10 μM) was “failed to disrupt the biofilm” throughout. The results for the “disruption of the biofilm (optical density from crystal violet staining)” value in assay [1] (poly(amino acid) 5 μM) and in assay [1] (poly(amino acid) 10 μM) were “exhibited disruption of the biofilm” and “this effect was significantly greater at 10 μM”, respectively. For the same molecule, in assay [4], the “intrinsic antibiotic effect on P. aeruginosa” value is “had no intrinsic antibiotic effect”.

Consider polyaspartic acid [(Asp)260], for which the “disruption of 24 hour Late strain biofilm” value in assay [5] is reported as “effectively disrupted a 24 hour old biofilm”. The “disruption of 48 hour Late strain biofilm” value in assay [5] was “neither DNase, nor (Asp)260 was effective as a single agent”. The “disruption of the biofilm (optical density from crystal violet staining)” value is “induced disruption of the biofilm” in assay [6]; “exhibited a significant disruptive effect” in assay [1] (poly(amino acid) 5 μM); “exhibited a disruptive effect” in assay [1] (poly(amino acid) 5 μM, listed as poly(D) ~260 mer). In addition, the “reduction in biofilm density, 24 hour biofilm” value in assay [7] (10 minutes, (Asp)260 5 μM) is on record as 49%. The “disruption of 24 hour biofilm, 10 minute exposure” value in assay [7] (setting [9]) is “effectively disrupted 24 hour old biofilms”. Further, the “disruption of the biofilm, longer (260) versus shorter (74) chain” value in assay [1] is “more effective than the shorter (Asp)74”; in assay [1] (listed as poly(D) ~260 mer), “exhibited greater disruption of the biofilm than their respective shorter chain form”.

B1: DNase: Pulmozyme (DNase) (Genentech) at 1 mg/mL in saline (protein, UniProt P24855 23-282, looked up)
Deoxyribonuclease-1: LKIAAFNIQTFGETKMSNATLVSYIVQILSRYDIALVQEVRDSHLTAVGKLLDNLNQDAPDTYHYVVSEPLGRNSYKERYLFVYRPDQVSAVDSYYYDDGCEPCGNDTFNREPAIVRFFSRFTEVREFAIVPLHAAPGDAVAEIDALYDVYLDVQEKWGLEDVMLMGDFNAGCSYVRPSQWSSIRLWTSPTFQWLIPDSADTTATPTHCAYDRIVVAGMLLRGAVVPDSALPFNFQAAYGLSDQLAQAISDHYPVEVMLK
Take B1: the “disruption of 48 hour Early strain biofilm” value in assay [8] is listed as “effective as a single agent”. For the same molecule, the “disruption of 48 hour Late strain biofilm” value in assay [5] is given as “neither DNase, nor (Asp)260 was effective as a single agent”. In assay [7] (setting [9]), the “disruption of 24 hour biofilm, 10 minute exposure” value is recorded as “effectively disrupted 24 hour old biofilms” and the “disruption of 48 hour biofilm, 10 minute exposure” value is recorded as “effective as a single agent”.
